Assay results from PubChem BioAssay (NCI).
“And” between values parts separate entries of the source, which are not always exact repeats. Identical values can stand only once.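 Growth conditions: 96-well plates. Treatment: test compound, 48 hours, 5 concentrations. Analysis: linear interpolation between bracketing concentrations; unreached endpoints set to highest concentration. At the GI50, growth is halved. TGI: concentration producing complete growth inhibition.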

Test system: NCI-H322M lung
Assay: inhibition of tumour cell growth, NCI panel, 48 h

| Structure (SMILES) | TGI | GI50 |
| --- | --- | --- |
| C[C@@H](C(=O)O)N1C(c2ccco2)=C(/C(C=O)=C\c2ccco2)C(=O)/C1=C\c1ccco1 | > 100 µM | – |
| NC(N)=NS(=O)(=O)c1ccc(NNc2c3ccccc3nc3ccccc23)cc1 | 60 µM | – |
| CCCCCCCCCCCCCCCCCCOC[C@H](COP(=O)(O)O[C@H]1[C@H](O)[C@@H](O)[C@H](O)C[C@H]1O)OC | > 100 µM and 23.5 µM | 93.9 µM and 11.2 µM |
| NC(CCCC(N)P(=O)(O)O)P(=O)(O)O (configuration not stated) | > 100 µM | – |
| CC(C)CNc1nc(-c2ccccc2Cl)nc2ccccc12 | 35.1 µM | 14.9 µM |
| CCC1=CCN(c2cc(C)ccn2)OC1c1ccc(OC)cc1 (configuration not stated) | > 100 µM | – |
| NC1=NN(c2ccccc2)C(=O)C1C(=O)CCC(=O)Nc1cccc(Cl)c1 (configuration not stated) | > 100 µM | – |
| CC1(C)N/C(=C\[N+](=O)[O-])C(C)(C)N1O | > 10 µM | – |
| Cc1ccc(C(=O)N/N=C(\N=Nc2cccc([N+](=O)[O-])c2)c2ccc(N(CCC#N)CCC#N)cc2C)cc1 | > 100 µM | – |
| N#Cc1ccc(-c2nc3c(N)ncnc3o2)cc1 | > 100 µM | – |
| Cc1ccc(-n2[nH]nc(C(N)=O)c2=O)cc1 | > 100 µM | – |
| CC1=C2C(O)C(C(C)C(=O)N(C)C)CCC2(C)C=CC1=O (configuration not stated) | > 100 µM | – |
| O=C1/C(=C\c2ccc([N+](=O)[O-])cc2)N(S(=O)(=O)c2ccccc2)c2ncccc21 | > 100 µM | – |
| N#C/C(=C/c1cccc(Oc2ccccc2)c1)c1ccccc1 | > 100 µM | – |
| CC1(C)C2CCC1(C)C(N/C(Sc1ccccc1)=C(/C(Cl)=C(Cl)Cl)[N+](=O)[O-])C2 (configuration not stated) | 39.7 µM | – |
| O=C1COc2cc(NC(=S)Nc3ccccc3)ccc2N1 | > 100 µM | – |
| CN(C)C/C=C/C(=O)Nc1ccc(C(=O)N[C@@]2(C)CCC[C@@H](Nc3ncc(Cl)c(-c4c[nH]c5ccccc45)n3)C2)nc1 | 1.14 µM | 0.0214 µM |
| O=C(O)CO[C@@]12C#C/C=C\C#C[C@@H]3N(C(=O)Oc4ccccc4)c4ccccc4[C@]14O[C@@]34CCC2 | > 100 µM | – |
| CC1C2CC(C(S(=O)(=O)O)C2=O)C1(C)C (configuration not stated) | > 100 µM | – |
| N/N=C\c1c2ccccc2c(=O)n2c1oc1ccccc12 | 11.2 µM | 1.95 µM |
| CCOC(=O)CCC(NC(=O)c1ccc(Nc2nc3ccc(C(F)(F)F)cc3nc2-c2ccccc2)cc1)C(=O)OCC (configuration not stated) | > 100 µM | – |
| COc1ccc(/C=C2\N=C(N3CCCCC3)NC2=O)cc1 | > 100 µM | – |
| CN(C)Cc1cc(C(F)(F)F)ccc1C(O)(c1ccccc1)c1ccccc1 | 26.7 µM | – |
